The values that follow come from paper PMC4336329 (PLoS ONE, 2015).

Each structure is given as a SMILES string. Among all 310,000 compounds or so, about 14,000 (4.5%) showed an effect of 50% or more. The effect is printed as a negative number. The list shows a part of the results.
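Note: peak tail current of the secondary pulse compared with the same well before compound.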

For this assay, the target named is human ether-à-go-go-related gene (hERG) potassium channel (human, UniProt Q12809). As to the kind of experiment: primary screen, population patch clamp on CHO cells stably expressing hERG.
Chain of human ether-à-go-go-related gene (hERG) potassium channel (Q12809 whole entry, looked up): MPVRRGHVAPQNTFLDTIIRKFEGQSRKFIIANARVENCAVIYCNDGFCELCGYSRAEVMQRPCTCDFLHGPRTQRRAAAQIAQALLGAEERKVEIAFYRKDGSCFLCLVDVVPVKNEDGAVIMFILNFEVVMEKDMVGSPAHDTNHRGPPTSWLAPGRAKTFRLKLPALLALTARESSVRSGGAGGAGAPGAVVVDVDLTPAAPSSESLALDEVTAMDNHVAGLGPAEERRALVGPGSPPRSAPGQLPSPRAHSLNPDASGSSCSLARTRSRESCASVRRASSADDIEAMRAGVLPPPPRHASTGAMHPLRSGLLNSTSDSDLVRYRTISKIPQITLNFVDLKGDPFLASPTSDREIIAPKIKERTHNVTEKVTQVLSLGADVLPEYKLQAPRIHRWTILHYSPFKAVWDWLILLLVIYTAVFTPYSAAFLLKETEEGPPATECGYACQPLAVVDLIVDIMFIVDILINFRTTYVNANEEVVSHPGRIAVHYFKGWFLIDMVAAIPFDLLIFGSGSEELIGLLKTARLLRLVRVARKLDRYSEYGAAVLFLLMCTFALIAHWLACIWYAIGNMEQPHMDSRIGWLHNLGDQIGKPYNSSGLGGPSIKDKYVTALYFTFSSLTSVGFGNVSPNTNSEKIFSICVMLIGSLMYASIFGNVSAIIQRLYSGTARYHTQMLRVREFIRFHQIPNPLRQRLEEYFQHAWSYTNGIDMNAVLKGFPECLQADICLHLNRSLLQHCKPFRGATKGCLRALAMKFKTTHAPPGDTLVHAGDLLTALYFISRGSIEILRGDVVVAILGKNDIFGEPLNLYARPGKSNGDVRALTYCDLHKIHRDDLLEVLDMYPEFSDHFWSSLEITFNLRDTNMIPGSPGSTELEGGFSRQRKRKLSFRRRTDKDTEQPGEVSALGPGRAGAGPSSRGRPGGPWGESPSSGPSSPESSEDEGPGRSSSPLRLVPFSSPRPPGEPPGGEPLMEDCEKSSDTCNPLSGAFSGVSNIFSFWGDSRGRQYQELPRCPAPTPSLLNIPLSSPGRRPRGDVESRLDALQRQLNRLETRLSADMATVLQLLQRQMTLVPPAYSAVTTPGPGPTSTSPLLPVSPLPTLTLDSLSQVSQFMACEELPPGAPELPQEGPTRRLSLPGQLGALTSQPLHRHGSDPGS
Turning to `O=c1cc(Nc2ccc3c(c2)OCO3)[nH]c(=O)n1-c1ccc(Br)cc1`, the “hERG current change (%, negative = inhibition) at 10uM” value was 8.13%.

For the compound `CC(=O)Nc1ccc(C(=O)OCc2ccc(Br)cc2)cc1`, the “hERG current change (%, negative = inhibition) at 10uM” value is listed as -4.69%.

In the case of `Cc1nnn(-c2nonc2N)c1C(=O)NNC(=O)c1ccc(Cl)c(Cl)c1`, the “hERG current change (%, negative = inhibition) at 10uM” value was -6.51%.

On to `CCOC(=O)c1ccc(NC(=O)N2CCN(S(C)(=O)=O)CC2)cc1`, for which the “hERG current change (%, negative = inhibition) at 10uM” value is reported as 9.85%.

Regarding `COc1ccc(CNC(=O)CCOc2ccc(C(C)(C)C)cc2)cc1`, the “hERG current change (%, negative = inhibition) at 10uM” value is reported as 8.47%.

In the case of `Cc1cc(C)nc(SCC(=O)Nc2ncc(C(F)(F)F)cc2Cl)n1`, the “hERG current change (%, negative = inhibition) at 10uM” value stood at 2.47%.

Regarding `O=C(COC(=O)c1ccco1)NCc1cccs1`, the “hERG current change (%, negative = inhibition) at 10uM” value was 12.4%.

Turning to `Cc1c(NC(NC(=O)CF)C(Cl)(Cl)Cl)c(=O)n(-c2ccccc2)n1C` (centres unmarked), the “hERG current change (%, negative = inhibition) at 10uM” value amounted to 4.94%.

In the case of `CCN(CC)S(=O)(=O)c1ccc(C(=O)N2CCN(c3ncccn3)CC2)cc1`, the “hERG current change (%, negative = inhibition) at 10uM” value amounted to 0.428%.

For `CC1CCCC(C)N1C(=O)c1cc(-c2ccc3c(c2)OCO3)on1` (centres unmarked), the “hERG current change (%, negative = inhibition) at 10uM” value turned out to be 5.12%.

`CC(=O)Nc1ccc(S(=O)(=O)Nc2cccc(N(C)S(C)(=O)=O)c2)cc1`: the “hERG current change (%, negative = inhibition) at 10uM” value was 8.45%.

Regarding `CN(C(=O)c1ccc(OC2CCN(CCc3ccccc3)CC2)cc1)C1CCCCC1`, the “hERG current change (%, negative = inhibition) at 10uM” value is -63.5%.

With `COC(=O)C1=C(c2c(C)noc2C)C[C@@H]2CC[C@H]1N2C(=O)NCc1ccc(F)cc1`, the “hERG current change (%, negative = inhibition) at 10uM” value was -10.5%.

As to `CN(C)C(=O)COc1ncnc2sc(-c3ccccc3)cc12`, the “hERG current change (%, negative = inhibition) at 10uM” value is given as 12.3%.

In the case of `CC(=O)c1ccc(-c2ccc(C(=O)N3CCN(c4ccc(F)cc4)CC3)o2)cc1`, the “hERG current change (%, negative = inhibition) at 10uM” value is recorded as -16.7%.

With `CCCCN1C(=O)C(=O)NC[C@@H]1CCCCN`, the “hERG current change (%, negative = inhibition) at 10uM” value is 10.5%.

With `Cc1cc(C)n2cc(CSc3nc4cc(Cl)ccc4o3)nc2n1`, the “hERG current change (%, negative = inhibition) at 10uM” value is on record as -68.1%.

Take `Cc1cccc(C(=O)OCc2cc3ccccc3[nH]c2=O)c1`: the “hERG current change (%, negative = inhibition) at 10uM” value is given as 3.65%.

On to `Nc1nonc1C(=O)OCC(=O)N1CCOCC1`, for which the “hERG current change (%, negative = inhibition) at 10uM” value is given as 9.79%.

For the compound `O=C(CSc1ccc2nnc(-c3ccncc3)n2n1)Nc1ccc2c(c1)OCO2`, the “hERG current change (%, negative = inhibition) at 10uM” value was determined as 7.8%.

As for `CCOCCCNC(=O)C1CCC(CNS(=O)(=O)c2ccc(F)cc2)CC1` (centres unmarked), the “hERG current change (%, negative = inhibition) at 10uM” value is -21.8%.

Turning to `O=[N+]([O-])c1cc(S(=O)(=O)Nc2ccc(Cl)cc2)ccc1N/N=C/c1ccncc1`, the “hERG current change (%, negative = inhibition) at 10uM” value turned out to be 21.2%.

With `C#CCOc1c(Cl)cc(/C=N/NC(N)=S)cc1OCC`, the “hERG current change (%, negative = inhibition) at 10uM” value is listed as -1%.

In the case of `O=C(O)C1(c2ccccc2)CCN(S(=O)(=O)c2cccs2)CC1`, the “hERG current change (%, negative = inhibition) at 10uM” value came to 5.95%.

As for `COc1ccc(C(=O)Nc2cc(OC)nc(OC)n2)cc1`, the “hERG current change (%, negative = inhibition) at 10uM” value came out at 4.42%.

For the compound `C=CCOc1c(CNc2cccc(C(=O)O)c2)cccc1OCC`, the “hERG current change (%, negative = inhibition) at 10uM” value was -4.78%.

`O=C(NCC(c1ccco1)N1CCc2ccccc2C1)C(=O)Nc1ccc(F)cc1F` (centres unmarked): the “hERG current change (%, negative = inhibition) at 10uM” value is on record as -0.136%.

As for `CCN1CCN(c2c(Cl)cccc2NC(=O)c2cccs2)CC1`, the “hERG current change (%, negative = inhibition) at 10uM” value was -73.8%.

In the case of `CCCN(Cc1ccccc1)C(=O)Nc1ccc2c(c1)nnn2C`, the “hERG current change (%, negative = inhibition) at 10uM” value is given as -2.15%.

With `Cc1ccc(S(=O)(=O)Nc2ccc3c4c(cccc24)CC3)c(C)c1`, the “hERG current change (%, negative = inhibition) at 10uM” value is recorded as 6.73%.

As to `CCOc1ccc(NS(=O)(=O)c2cc(NC(=O)CCS(=O)(=O)c3ccc(C)cc3)ccc2OC)cc1`, the “hERG current change (%, negative = inhibition) at 10uM” value amounted to 14.9%.

As to `CCOC(=O)C1C(=O)N(C)C2(C)CC1c1cc(OC)ccc1O2` (centres unmarked), the “hERG current change (%, negative = inhibition) at 10uM” value is listed as 13.6%.

With `CCOc1ccc(N=c2oc3cc(O)ccc3cc2C(=O)NCC2CCCO2)cc1` (centres unmarked), the “hERG current change (%, negative = inhibition) at 10uM” value is 1.76%.

For `Cc1ccc(NC(=S)NC(NC(=O)c2ccccc2C)C(Cl)(Cl)Cl)c(C)c1` (centres unmarked), the “hERG current change (%, negative = inhibition) at 10uM” value is 22.8%.

In the case of `CCOC(=O)c1c(NC(=O)CCC(=O)O)sc2c1CCCCC2`, the “hERG current change (%, negative = inhibition) at 10uM” value is listed as -5.59%.

Turning to `CCNC(=S)NNC(=O)c1cc(CC(C)C)nc2ccccc12`, the “hERG current change (%, negative = inhibition) at 10uM” value is 15%.

As to `COc1ccc(CSc2nnnn2C)cc1[N+](=O)[O-]`, the “hERG current change (%, negative = inhibition) at 10uM” value is listed as -10.1%.

As for `CCCC(c1nnnn1CC1CCCO1)N1CCN(c2ccccc2)CC1.Cl` (centres unmarked), the “hERG current change (%, negative = inhibition) at 10uM” value is listed as -4.74%.

`C/C(=N\NC(=O)c1ccc(Cl)c(Cl)c1)c1cccc(NC(=O)C(C)C)c1`: the “hERG current change (%, negative = inhibition) at 10uM” value amounted to 1.91%.

On to `Cc1ccccc1CN(CC(=O)Nc1cccc([N+](=O)[O-])c1)S(=O)(=O)c1ccc(Cl)cc1`, for which the “hERG current change (%, negative = inhibition) at 10uM” value came out at 15.1%.

As for `CN(CC(=O)NCc1ccccc1Cl)S(=O)(=O)c1cccs1`, the “hERG current change (%, negative = inhibition) at 10uM” value is recorded as -3.23%.

In the case of `COc1ccc(Cl)cc1NC(=S)N1CCC(c2ccc(C)cc2)C1` (centres unmarked), the “hERG current change (%, negative = inhibition) at 10uM” value is recorded as -1.95%.

Take `COC(=O)c1cc(=O)n(Cc2cccs2)c(=NCc2cccs2)s1`: the “hERG current change (%, negative = inhibition) at 10uM” value is given as -1.05%.

With `COc1ccc(C(CNC(=O)c2ccco2)N2CCCC2)cc1` (centres unmarked), the “hERG current change (%, negative = inhibition) at 10uM” value is -7.05%.

For `O=C(CCN1C(=O)/C(=C\c2ccccc2Cl)SC1=S)N1CCN(c2ccccc2)CC1`, the “hERG current change (%, negative = inhibition) at 10uM” value came to 13.2%.

Consider `COc1ccc(NC(=O)Cn2cnc3sc(C)c(S(=O)(=O)N4CCOCC4)c3c2=O)cc1Cl`, for which the “hERG current change (%, negative = inhibition) at 10uM” value was -35.8%.

Consider `CCOC(=O)c1cnc2nc(COc3ccccc3)[nH]n2c1=O`, for which the “hERG current change (%, negative = inhibition) at 10uM” value was -6.92%.

Consider `CCOCCCn1c(SCC(=O)Nc2ccc(C(N)=O)cc2)nc2ccccc2c1=O`, for which the “hERG current change (%, negative = inhibition) at 10uM” value was -9.16%.

For `COc1ccc(N(C(=O)c2ccc(Br)o2)C2C=CS(=O)(=O)C2)c(OC)c1` (centres unmarked), the “hERG current change (%, negative = inhibition) at 10uM” value is recorded as -19.3%.

Regarding `Cc1c(C(=O)n2cnc3ccccc32)cccc1[N+](=O)[O-]`, the “hERG current change (%, negative = inhibition) at 10uM” value is reported as -41.3%.

Consider `N#Cc1ccsc1NC(=O)COC(=O)C1=NNC(=O)CC1`, for which the “hERG current change (%, negative = inhibition) at 10uM” value was determined as 6.29%.

On to `Cc1ccc(S(=O)(=O)NCCc2nnc3ccc(NCCCOC(C)C)nn23)cc1`, for which the “hERG current change (%, negative = inhibition) at 10uM” value was 6.32%.

`CCOc1ccc(CCN2C(=O)CCC2(C)C(=O)NC(C)CC)cc1OCC` (centres unmarked): the “hERG current change (%, negative = inhibition) at 10uM” value is on record as -6.94%.

For the compound `Cn1cc(C(N)=O)c2ccccc21`, the “hERG current change (%, negative = inhibition) at 10uM” value is recorded as 6.98%.

On to `COc1ccccc1NC(=O)CN1CCN(c2ccccc2OC)CC1`, for which the “hERG current change (%, negative = inhibition) at 10uM” value is -5.29%.

`COc1ccc(CCNC(=O)CC(=O)NCCc2ccc(OC)cc2)cc1`: the “hERG current change (%, negative = inhibition) at 10uM” value came to 25.1%.
